± gives the standard deviation of the averaged measurements. The list shows a part of the results.
Tested on: PfAP2-I AP2 domain 3 (GST-tagged)
Assay: gcPBM binding intensity (ln(normalized median fluorescence intensity)); higher = stronger DNA binding
Method in brief: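 In this array assay, P. falciparum DNA-binding domains with a GST tag, expressed in E. coli, were applied for 1 h to primer-extended double-stranded 36-bp intergenic genomic probes and negative controls on an Agilent 4 × 180k array. Bound protein was visualised with Alexa488 anti-GST antibody at 488 nm. Binding intensity is the highest Masliner-normalised natural-log median intensity across replicate spots of either probe orientation.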

Sequence | gcPBM binding intensity (ln)
ATTCAAAAGATGTATACACACATGTGGATAATATAA [CACACA_site2443] | 8.03 ± 0.61
GCACCCTGTATGAATGCACACATTCATAGAATTGCT [CACACA_site5475] | 9.42 ± 0.042
AATAACAAAATAGGCACACGCACATATATATATATA [CACACA_site1497] | 9.43 ± 0.48
TATTTTTCTTTTTAAAAATATATCACATGAACATTA [XGTACX_negctrl_site183] | 7.43 ± 0.52
CCCCTTGTGGATTCTACACACAAAAAGTCGTCAAAA [CACACA_site821] | 8.09 ± 0.76
GAATTCCTTTGTGTATGTACATAATGATATTATTTT [XGTACX_site7369] | 7.83 ± 0.55
TGATCAAATAAGTTTGCATGTCAACAATGCATATAT [TGCATGCA_site1025] | 7.92 ± 0.66
TAATTTTTTAAACACACACACATATATATATATATA [CACACA_site4230] | 9.56 ± 0.57
CATATCTCAATTTATGCATGCAGGATTTTTCTAATA [TGCATGCA_site516] | 8.03 ± 0.69
ACACAAAAAAAAAAAAAAAAAAAAAAAAAAAAGGAA [CACACA_negctrl_site1162] | 7.82 ± 0.59
AATATGTACAGACATACACACATATATATATATATA [CACACA_site1222] | 9.27 ± 0.43
TTTTTTTTTTTTTGGTGTACATTTATAAAAAAAAAA [XGTACX_site8368] | 8.21 ± 0.35
ACATATAAGATTATGTGTCCACAAAAAAATAAAACA [XGTACX_site2867] | 7.95 ± 0.31
TTTTATGTTCTTAATGCACACTTATAAGTATCTTAT [CACACA_site4895] | 11.4 ± 0.72
TTTTTTTATTATTCTTATATAAAAATTTTTTTTAAT [CACACA_negctrl_site159] | 7.57 ± 0.57
TTTTTAATAACACTTTTGAAAAATAAAATAAAATAA [CACACA_negctrl_site821] | 7.87 ± 0.52
GTATATAATTTTTTATGTACTAAATTATATGTTTTT [XGTACX_site4907] | 7.51 ± 0.49
ATCTATTTGTAAAGGGTGCGCATATCAATAAAAAAT [GTGCAC_site9503] | 10.1 ± 0.3
CACACAAAGGAATATACACACATATTTATATTTATA [CACACA_site7841] | 7.68 ± 0.28
CAAAATTTTTATAAGTCACACATTATCTAAGCTTAT [CACACA_site5747] | 7.57 ± 0.45
TACCTAATATGTTATACACACATTAGAAGTACATAT [CACACA_site5375] | 7.86 ± 0.42
ATAAAAAAAAAAAAAAAATATATATATATATATATA [XGTACX_negctrl_site424] | 9.4 ± 0.23

Sequence | gcPBM binding intensity (ln)
TTTTAGGTCTGAATGTGTACTAAATAATATAAGTAT [XGTACX_site6554] | 8.12 ± 0.34
TGTAATAACGTTATAAAAAGTATAAAAAAAAAAAAA [CACACA_negctrl_site943] | 7.9 ± 0.42
TTATTTTTATTATTTTGTATATATATTTATAGAAAA [XGTACX_negctrl_site465] | 7.84 ± 0.22
TATATACTTTTTAATCACACTTCTTTAAAAAAAGTA [CACACA_negctrl_site1380] | 7.7 ± 0.4
TTTTTGTTATTATGTGTGCACATATATATATATATA | 10.3 ± 0.31
TATGTTATTATTTGTACACACACATATATATCCTTG [CACACA_site5910] | 8.01 ± 0.58
AACAAATATCCCAAAAGTACACATATAAAAAAAAAA [XGTACX_site4126] | 8.11 ± 0.67
ATTATCTTATGTTATTTATTTGTCCCACATTTGTTA [TGCATGCA_negctrl_site402] | 7.88 ± 0.86
CATACACCCAGACACACACACATATATATATATATA [CACACA_site634] | 9.35 ± 0.4
TACTAACATAAAGACACACACCACATAAAATAAATA [CACACA_site7663] | 7.92 ± 0.45
CTTATTTTGTTATAAGTGCATTTTTTAAAATTTCTT | 9.05 ± 0.42
GGAAGAAAACTTAGGTGTACATATAAAACGATATAA [XGTACX_site3118] | 7.96 ± 0.52
TATGAACACAGACACACACACAAAAAAAAAAAAAAA [CACACA_site7037] | 7.99 ± 0.51
ATAGTATACAGACACACACACACACCGATATATATA [CACACA_site8511] | 8.15 ± 0.61
TTTATGTGTATGTTTACACACATAAAAAAATATATG [CACACA_site3039] | 7.59 ± 0.41
TATACCTTTGCGTGTGCATGCGCTTATATATATTTT [TGCATGCA_site152] | 8.12 ± 0.86
TATTTTTAATATTTTGCATGCAGTATTTTATAAAAT [TGCATGCA_site250] | 8.39 ± 0.47
ACAATTCCCGTATGATGTACTTTTTTCCACTTTTTC [XGTACX_site1811] | 8.21 ± 0.88
TAAAGTTTTTTTTTAACACACACATAATAAAATAAA [CACACA_site8042] | 7.79 ± 0.43
TAAAAAAATAAAAAAAAAAAATTATAAAATTATATA [GTGCAC_negctrl_site302] | 7.06 ± 0.31
AAATATATTATAAATTGTACGTTTATATATATTATT [XGTACX_site5110] | 7.51 ± 0.46
GACACATATAAATATTAACACACATAATGAATTATA [CACACA_site8881] | 7.84 ± 0.42

Sequence | gcPBM binding intensity (ln)
TAACTAAGGAATAATACACACAGAAATATATATTTA [CACACA_site344] | 7.61 ± 0.54
ACATTATGCCATAAATGTACACATACATATACACAG [XGTACX_site1330] | 8.15 ± 0.36
GATGATGTTACTTAAGTGCATATAAATTATATTTTA [GTGCAC_site9940] | 9.82 ± 0.24
GTGTTCTTGTTATACACACACATATTTATATTTATA [CACACA_site6615] | 8.22 ± 0.5
TAGTATCAATCTTATACATGCATAAAATAATTATAA [TGCATGCA_site1052] | 7.73 ± 0.47
TTTATTTATATAATTACACACATATATACGCAAATG [CACACA_site2794] | 7.78 ± 0.31
AAAGTATAGATGTATACACACACCAAACGTTAAAAA [CACACA_site3081] | 7.91 ± 0.85
TTTTATTCATTAATTTGTACTTATCCTTTTGCTTAA [XGTACX_site1243] | 7.76 ± 0.84
TCATTAATTAAATCTTGTACATATTCATATATATAT [XGTACX_site2241] | 8.86 ± 0.042
TATATATATAACAACACACACAGATCATAAAACTGC [CACACA_site2161] | 8.82 ± 0.37
AAAAAAAAAAAAAACACACACAAATTTAATATATAT [CACACA_site1695] | 8.04 ± 0.67
TCCCAAGGAGTAGGCACACATAAAATATTATACATA [CACACA_site717] | 7.84 ± 0.41
TATATTTATTTTAACACACACATATATATATTATAT [CACACA_site4729] | 7.86 ± 0.41
AAAAAAAAAAAAAAAACACACACAAATTTAATATAT [CACACA_site8492] | 8.64 ± 0.59
AAAATTAAAGTAAGGACACACATATATAATACATAT [CACACA_site823] | 7.86 ± 0.59
TACACCAAAAAAAAACGTACAAAATCCCACCCAGAC [XGTACX_site4622] | 8.88 ± 0.87
TACAACATATTCAAATGTACAAATATAGGAATGAAA [XGTACX_site2730] | 7.89 ± 0.67
AGCGTATTATACTGACGTACATTTTATGTAACTCCA [XGTACX_site2715] | 7.65 ± 0.42
AACATAAAATGGATATGTACATAAAAATATATACTC [XGTACX_site7775] | 7.82 ± 0.39
TTATGTATTCATAACACATGCAAATAGGATCATATA [TGCATGCA_site731] | 7.93 ± 0.56
CGTTAGAGGGCTTTATCACACATGAAAAAAAAAAAA [CACACA_site5155] | 8.18 ± 0.63
ATATGATTTCACAAGACACACACATACAAATTTATA [CACACA_site9296] | 8.12 ± 0.49

Sequence | gcPBM binding intensity (ln)
CACACGCACAGACACACACACACATATAAATATGTA [CACACA_site6300] | 8.3 ± 0.23
TTATATAAACACCAACGTACGTTCATTTAACATAAC [XGTACX_site5250] | 8.03 ± 0.49
TATATATATATATATTGTACATATGTGGTATAAATG [XGTACX_site6108] | 9.55 ± 0.28
ATATTACATATGTGCTGTACGCAATATATTATATCT [XGTACX_site1520] | 8.38 ± 0.35
GCATATCTATTTTCACGTACACAAACATGTATATAT [XGTACX_site3722] | 8.39 ± 0.6
AAGAACTTTAATAAGTGTACATTTATTGGAAACATG [XGTACX_site2995] | 7.97 ± 0.42
TAAAATATAGAAAATTTTATTAAATATAAAAAAATA [CACACA_negctrl_site1441] | 7.23 ± 0.55
AAAAATATATATTCAGTGCATATAACAAAAATTATA [GTGCAC_site9794] | 9.66 ± 0.12
CATATATAACCTATAGCACACATATATAATATATAT [CACACA_site8544] | 8.48 ± 0.26
ATTAAATAAAAAAACACACACATATATACATATATA [CACACA_site3445] | 7.65 ± 0.52
CATAATAATAGAAACACACACACATAGACATATATA [CACACA_site1308] | 7.67 ± 0.53
ACATATTAATTATTATGACATACATATCAGTTATTA [TGCATGCA_negctrl_site126] | 7.58 ± 0.45
TATATTATTTTATATTGTACATACCAAATATTATAT [XGTACX_site1693] | 7.74 ± 0.49
AGAAAAATAAACAAATGTACAAATTATTACTATATA [XGTACX_site1087] | 7.63 ± 0.34
CATGTGATAATGATTAGTACATAAACAAAAATATAT [XGTACX_site5866] | 7.99 ± 0.86
TTTAATTTATATTTTGTGCACATCTTATTATATATA [GTGCAC_site9630] | 10.5 ± 0.21
AATTTTGTTTAGCACACACACATACATACATACATA [CACACA_site5707] | 8.86 ± 0.29
TATAATATTAATGACTGTACTCATACGTATATTTAT [XGTACX_site5493] | 7.79 ± 0.3
CCCATTTTGACAAAAAGTACAAGTTCAGGTTTTATA [XGTACX_site1532] | 7.83 ± 0.35
TTTCTCTTCTAAACATGTACAAAAATACATACATAT [XGTACX_site1365] | 7.96 ± 0.49
AAAAATTAAAATATTATAGTTGAAACTTTTATAAAT [TGCATGCA_negctrl_site454] | 7.18 ± 0.42
ATATATATATATATATGTACATACATACATAGAACT [XGTACX_site2214] | 9.58 ± 0.49
